Experimental data: PubChem BioAssay AID1745853 (National Center for Advancing Translational Sciences (NCATS), 2022)
Several values for one entry are separate records, joined by “and”; a condition that tells them apart may be missing. Equal entries are not always repeated. This is one part of the list. Further columns of the screen follow, without active or inactive calls.

Legend:
Experiment in all cases: Primary Screen for Target Class Profiling of Small Molecule Inhibitors of Methyltransferases
[1] = molecular target: Glycine N-methyltransferase (Homo sapiens) (UniProt Q14749); settings: purified enzyme, MTase-Glo SAH luminescence; measured here: GNMT inhibition; at 40 µM; stronger effect = lower value
Summary of the method: (§1)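 Each enzyme was assayed with SAM and its substrate. SAH formation detected by MTase-Glo luminescence; single-point 40 uM screen[…].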

[2] = molecular target: Guanidinoacetate N-methyltransferase (Homo sapiens) (UniProt Q14353); settings: purified enzyme, MTase-Glo SAH luminescence; measured here: GAMT inhibition; at 40 µM; stronger effect = lower value
Summary of the method: as §1

[3] = molecular target: Histamine N-methyltransferase (Homo sapiens) (UniProt P50135); settings: purified enzyme, MTase-Glo SAH luminescence; measured here: HNMT inhibition; at 40 µM; stronger effect = lower value
Summary of the method: as §1

[4] = molecular target: Nicotinamide N-methyltransferase (Homo sapiens) (UniProt P40261); settings: purified enzyme, MTase-Glo SAH luminescence; measured here: NNMT inhibition; at 40 µM; stronger effect = lower value
Summary of the method: as §1

[5] = molecular target: Phenylethanolamine N-methyltransferase (Homo sapiens) (UniProt P11086); settings: purified enzyme, MTase-Glo SAH luminescence; measured here: PNMT inhibition; at 40 µM; stronger effect = lower value
Summary of the method: as §1
On the % scale 0 is the no-effect control and ±100 the full control effect.

SMILES | activity change, negative = inhibition [1] [%] | activity change, negative = inhibition [2] | activity change, negative = inhibition [3] [%] | activity change, negative = inhibition [4] | activity change, negative = inhibition [5]
CC(C)CCNC(=O)CCc1nnc2n(CCCOC(C)C)c(=O)c3ccccc3n12 | -6.34 | 0.522% | 3.61 | 0.923% | -3.38%
O=C(Nc1cccc(C(F)(F)F)c1)N[C@H]1[C@H](O)[C@@H](Oc2ccccc2)[C@@H]2OC[C@H]1O2 | -3.87 | 5.71% | 2.49 | -8.03% | 3.04%
CC1CCC(NC(=O)C2(C)Cn3c(nc4ccccc43)C(=O)N2Cc2cccnc2)CC1 (centres undefined) | -0.469 | 1.51% | -2.62 | -3.09% | -5.58%
Cc1csc(CN(C)C(=O)CC(c2ccccc2)c2ccc3c(c2)OCO3)n1 (centres undefined) | -4.95 | -1.36% | 0.415 | -8.82% | 2.72%
COc1ccc(CN2CCCCC23Cc2ccccc2CN(C(C)=O)C3)cc1 (centres undefined) | -2.69 | 0.333% | -0.995 | -1.93% | -0.817%
CCN(CC)CCCNC(=O)c1cc2n(n1)CC(C)(C(=O)NC1CCCCC1)N(C)C2=O (centres undefined) | 5.71 | 0% | 3.57 | 11.1% | 3.85%
O=C(O)CCn1ncc2cc(OCC3CCN(c4ncc(F)cn4)CC3)ccc21 | -13 | -8.98% | -5.25 | -19.1% | 7.54%
c1ccc(Nc2cc3c(cn2)NCCN(Cc2cccs2)C3)cc1 | -16.8 | -3.21% | -14.7 | -14% | -19.5%
O=S(=O)(c1ccccc1)N(CC(F)(F)F)c1ccc(C(O)(C(F)(F)F)C(F)(F)F)cc1 | -1.17 | 4.24% | 12.3 | -3.77% | 6.35%
COc1ccc(C(=O)Cn2nc3n(C(C)C)c(=O)c4ccc(C(=O)NC5CCCCC5)cc4n3c2=O)cc1 | 4.86 | 0% | 8.09 | 6.24% | 3.74%
CC#CC(=O)Nc1ccc2ncnc(Nc3cccc(Br)c3)c2c1 | -0.01 | -23.7% | -2.09 | -34.8% | -17.4%
COc1ccc(OC)c(S(=O)(=O)N2CCC3(CC2)CC(CC(=O)N2CCOCC2)CCO3)c1 (centres undefined) | -1.13 | 0% | 1.03 | -1.08% | -0.698%
Cc1ccc(CN2CCn3c(nn(-c4ccncc4)c3=O)C2)cc1 | -6.23 | -10.5% | -6.76 | -6.69% | -3.25%
CCC(C(C)O)n1ncn(-c2ccc(N3CCN(c4ccc(OCC5COC(Cn6cncn6)(c6ccc(F)cc6F)C5)cc4)CC3)cc2)c1=O (centres undefined) | -0.489 |  | 3.63 |  | 
CC1CCC(NC(=O)C2(C)Cn3c(cc4occc43)C(=O)N2CCN(C)C2CCCCC2)CC1 (centres undefined) | 2.34 | 0.51% | 1.24 | 9.88% | -0.822%
O=C(Nc1ccccc1)N1CCC(N2CCCNC2=O)CC1 | -4.79 | -5.86% | -3.17 | -12.4% | -7.24%
CC(C)Cn1c(=O)c2ccccc2n2c(SCC(=O)Nc3ccc(Cl)cc3)nnc12 | -4.47 | -0.083% | 1.07 | -6.76% | -1.54%
COc1cc2nc(-c3ccc(N4CCN(C)CC4)cc3)nc(NCCN3CCOCC3)c2cc1OC | -6.31 | -15.2% | -12.3 | -21.8% | -3.94%
Cn1c(=O)n(C)c2cc(S(=O)(=O)N3CCN(c4ccc(Cl)cc4)CC3)ccc21 | 3.26 | 0% | -1.17 | -3.23% | -0.51%
Cc1ccc(N2C(=O)CSc3c(c4ccccc4n3C)C2C(=O)NCc2ccccc2)cc1Cl (centres undefined) | 11.5 | 1.73% | 4 | 0.831% | 6.41%
NC(CCCP(=O)(O)O)C(=O)O (centres undefined) | 5.86 | 15.6% | 10.5 | -1.09% | 3.04%
CCCCN1C(=O)c2cc(C(=O)Nc3ccccc3C)nn2CC1(C)C(=O)NC1CCCC1 (centres undefined) | -1.18 | 0% | -9.67 | 1.14% | 0.323%
O=C(O)c1cc(-c2c(-c3ccccc3)nn3ccccc23)n[nH]c1=O | -7.68 | 3.93% | -4.64 | -14.3% | -5.68%
CN(CCc1cn[nH]c1)C(=O)C1CCN(C(=O)C2CCC2)CC1 | -0.411 | -2.98% | -0.335 | 1.95% | -0.91%
CC(C)Oc1ccc(C(=O)N2Cc3cnn(Cc4ccc(F)cc4)c3C2)cc1 | -2.94 | 2.73% | 0.072 | -12% | -4.71%
CN(Cc1cn(-c2ccccc2)nn1)Cc1noc2c1CCCC2 | -5.28 | -7.62% | -1.59 | -4.88% | -8.79%
CCCn1c(=O)c2ccccc2n2c(=O)n(CC(=O)NCc3ccc(C)cc3)nc12 | -0.093 | 1.69% | 2.76 | 0.049% | 4.46%
Cn1cccc1CN1C[C@@H](CO)[C@H](c2ccncc2)C1 | -4.72 | -1.68% | -11.8 | 0.688% | -1.44%
COc1cc(F)c(F)c(Nc2ccc(I)cc2F)c1NS(=O)(=O)C1(C[C@H](O)CO)CC1 | -14.3 | -4.27% and 14.3% | 10.1 | -17.4% and -6.25% | 1.59% and 9.39%
CC(C)(C)NCC(O)COc1cccc2c1CCCC2=O (centres undefined) | 9.13 |  | -9.17 |  | 
